# Certain results were filed several times, with different values. This is not the full list of results. There may be further records. The values listed for one entry appear to be repeats (runs, samples, wells or individuals); a mean can stand among them. Brackets tell where a record comes from. A, B and so on number the origins entry by entry.
# How the values were obtained:
# TRPM8 I846V = target: T1, TRPM8 I846V (Mus musculus, UniProt Q8R4D5, I846V); test: whole-cell patch-clamp and thermodynamic mutant cycle analysis; type: cell-based; conditions: read-out: Kd, single recording
# T1 construct: expressed in transfected cells; host or cells: HEK293T
# Description: Murine TRPM8 was used in this study. Point mutations were made by Fast Mutagenesis Kit V2 (SBS Genetech). Primers used to generate point mutations are summarized in Supplementary Table 2. All mutations were confirmed by sequencing.
# HEK293T cells purchased from Kunming Cell Bank, Kunming Institute of Zoology, Chinese Academy of Sciences (ATCC, CRL-3216) were cultured in Dulbecco’s modified Eagle’s medium supplemented with 20 mM L-glutamine and 10% fetal bovine serum. Cells were transiently transfected with cDNA constructs by Lipofectamine 3000 (Life Technologies) following the manufacturer’s protocol. Patch-clamp recordings were performed 1–2 days after transfection.
# Patch-clamp recordings were performed with a HEKA EPC10 amplifier controlled by PatchMaster software (HEKA). Whole-cell recordings were performed at ±80 mV. […] For single-channel recordings, patch pipettes were fire-polished to a higher resistance of 6-to-10 MΩ and then recorded in the inside-out configuration. […]
# (§1) Data from whole-cell recordings were analyzed in Igor Pro version 6.1 (WaveMatrix). […]
# To perform thermodynamic cycle analysis, Kd values of four channel-ligand combinations (WT channel, menthol: Kd _1; Mutant channel, menthol: Kd _2; WT channel, menthol analog: Kd _3; Mutant channel, menthol analog: Kd _4) were determined separately. […] LnΩ was calculated by Eq. (2) as[51]2 LnΩ=LnKd_1⋅Kd_4/Kd_2⋅Kd_3.
# wild-type TRPM8 = target: T2, wild-type TRPM8 (Mus musculus, UniProt Q8R4D5); test: whole-cell patch-clamp recording of ligand activation; type: cell-based; conditions: WT; read-out: Kd, single recording
# T2 construct: expressed in transfected cells; host or cells: HEK293T
# Description: Murine TRPM8 was used in this study. Point mutations were made by Fast Mutagenesis Kit V2 (SBS Genetech). Primers used to generate point mutations are summarized in Supplementary Table 2.
# Cells were transiently transfected with cDNA constructs by Lipofectamine 3000 (Life Technologies) following the manufacturer’s protocol. Patch-clamp recordings were performed 1–2 days after transfection.
# Patch-clamp recordings were performed with a HEKA EPC10 amplifier controlled by PatchMaster software (HEKA). Whole-cell recordings were performed at ±80 mV. Patch pipettes were prepared from borosilicate glass and fire-polished to resistance of ~4 MΩ. For whole-cell recording, serial resistance was compensated by 60%. For single-channel recordings, patch pipettes were fire-polished to a higher resistance of 6-to-10 MΩ and then recorded in the inside-out configuration. To maximize the chance of obtaining a patch with only one channel, single-channel recordings were performed about 8 h after transfection. A solution with 130 mM NaCl, 10 mM glucose, 0.2 mM EDTA, and 3 mM HEPES (pH 7.2) was used in both bath and pipette for either whole-cell or single-channel recordings. Membrane potential was clamped at +80 mV for single-channel recordings. Current was sampled at 10 kHz and filtered at 2.9 kHz. […]
# as §1
# T1 sequence (Q8R4D5 whole entry I846V): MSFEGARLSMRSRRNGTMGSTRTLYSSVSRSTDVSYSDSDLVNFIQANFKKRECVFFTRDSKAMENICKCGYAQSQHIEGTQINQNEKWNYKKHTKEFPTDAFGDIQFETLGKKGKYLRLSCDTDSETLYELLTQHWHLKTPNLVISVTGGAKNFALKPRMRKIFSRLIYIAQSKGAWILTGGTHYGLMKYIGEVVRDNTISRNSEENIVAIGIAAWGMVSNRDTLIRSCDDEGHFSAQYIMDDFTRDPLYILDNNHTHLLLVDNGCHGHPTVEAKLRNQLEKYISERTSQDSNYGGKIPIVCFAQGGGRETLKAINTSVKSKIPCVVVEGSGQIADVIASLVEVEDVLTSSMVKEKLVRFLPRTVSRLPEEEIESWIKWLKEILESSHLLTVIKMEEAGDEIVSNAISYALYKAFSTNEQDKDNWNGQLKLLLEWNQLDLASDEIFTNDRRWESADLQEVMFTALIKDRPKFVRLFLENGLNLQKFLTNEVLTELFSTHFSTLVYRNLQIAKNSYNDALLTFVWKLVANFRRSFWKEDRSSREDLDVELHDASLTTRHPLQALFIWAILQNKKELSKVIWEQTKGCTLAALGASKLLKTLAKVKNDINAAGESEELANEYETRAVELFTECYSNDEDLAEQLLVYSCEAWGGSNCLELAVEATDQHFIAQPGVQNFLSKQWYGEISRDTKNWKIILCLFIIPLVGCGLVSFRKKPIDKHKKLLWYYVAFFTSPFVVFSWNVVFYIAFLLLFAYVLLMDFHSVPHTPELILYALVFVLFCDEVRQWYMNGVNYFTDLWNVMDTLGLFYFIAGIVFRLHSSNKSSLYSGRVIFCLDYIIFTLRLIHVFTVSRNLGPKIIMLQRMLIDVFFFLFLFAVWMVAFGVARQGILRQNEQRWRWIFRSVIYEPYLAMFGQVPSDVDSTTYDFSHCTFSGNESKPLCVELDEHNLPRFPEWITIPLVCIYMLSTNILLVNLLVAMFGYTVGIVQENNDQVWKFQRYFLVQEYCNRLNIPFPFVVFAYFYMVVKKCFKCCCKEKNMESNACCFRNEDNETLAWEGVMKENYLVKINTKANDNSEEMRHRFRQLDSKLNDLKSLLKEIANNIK
# T2 sequence (Q8R4D5 whole entry): as the sequence (Q8R4D5 whole entry I846V) above, with V846I counted along it
Structure (SMILES),Kd (TRPM8 I846V),Kd (wild-type TRPM8)
C=C(C)[C@@H]1CC[C@@H](C)C[C@H]1O [isopulegol],"9.76 mM, 689 µM, 3.17 mM, 2.75 mM [lines of one column]",
"CC(C)[C@@H]1CC[C@@H](C)C[C@H]1O [menthol, (−)-menthol]",,"2.04 mM, 1.98 mM, 350 µM, 685 µM, 256 µM [table A] and 1.61 mM, 2.14 mM, 352 µM, 658 µM, 71.2 µM [table B]"

# Reference: paper PMC7391767, “Molecular mechanisms underlying menthol binding and activation of TRPM8 ion channel” (Nature Communications, 2020)
